Experimental data taken from publication PMC8384840, “The chaperone HSPB1 prepares protein aggregates for resolubilization by HSP70” (Scientific Reports, 2021).

Molecular target: the molecule itself
Experiment: SEC; 20 µM HSPB1 or mutant alone, native; Superose 12 10/300 GL, reaction buffer (100 mM KOAc, 20 mM HEPES-KOH pH 7.5, 5 mM MgOAc2), 4 °C, absorbance at 280 nm

B1: HSPB1-3D-GxG (natural protein)
chain: not shown
notes: human HSPB1 with S15D, S78D, S82D and the IXI/V motif 181-IPV-183 mutated to GxG (I181G, V183G); in pPROEX HTa; Dimer by SEC; His tag removed with TEV protease; also called HSPB1-3D-GxG (I181G/V183G)
With B1 the “stoichiometry N” value was 2.
